# About 50,000 (12%) of roughly 420,000 compounds were called active. The shares of active, inactive and inconclusive entries below differ from those in the screen. Calls follow the shape of the dose curve; as a rule, active = well fitted inhibition curve with a large enough effect; inconclusive = small, poorly fitted or top-dose-only effect; inactive = flat fitted curve, though single readings scatter. No potency is given beside an inconclusive call; the fits are too rough.
# Experiment: qHTS for Inhibitors of human tyrosyl-DNA phosphodiesterase 1 (TDP1): qHTS in cells in presence of CPT; also: nearly all actives have a fitted effect of over 55% in size
# Conditions: chicken DT40 Tdp1-/-;hTDP1 cells + 20 nM CPT, ATP luminescence, 48 h; activity change, negative = growth inhibition: at 46.2 µM (top of the series) unless noted
# Outline: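 Chicken DT40 Tdp1-/- cells stably complemented with human TDP1 were seeded at 400 cells/well in medium containing 20 nM camptothecin, exposed to pin-transferred compounds, and grown at 37 °C for at least 48 hr. Viability was read as ATP luminescence.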
# % is scaled to controls: 0 for no effect and ±100 for the full control effect; potency is read from the fitted curve at half-maximal effect; tags tell the direction and shape of the fitted curve.
SMILES,Potency,"activity change, negative = growth inhibition"
CC12CC3CC(C)(C1)CC(CN1CCOCC1)(C3)C2,"inconclusive [inhibitor, single point]",
COc1ccc(C(=O)N/C(=C\c2cccc3ccccc23)C(=O)NCCc2c[nH]c3ccccc23)cc1OC,,inactive: -18.4%
Nc1c(Br)cc(Br)c2c1C(=O)c1c(cccc1S(=O)(=O)O)C2=O,,inactive: -7.7%
O=C(NCCCn1cccn1)C1CCC(=O)N(CCc2ccccc2)C1 (stereo not drawn),,inactive: -1.85%
N#CCCN1CCN(S(=O)(=O)c2ccc3c(c2)OCCCO3)CC1,,inactive: -2.14%
COc1ccc(NC(=O)CSc2nc3nc(C)cc(C)c3c(=O)[nH]2)cc1OC,,inactive: -20.2%
CN(C=O)c1ccc(CSc2ccccc2)cc1,,inactive: -1.6%
COC(=O)CN1C(=O)CSc2ccc(S(=O)(=O)Nc3cccc(C)c3)cc21,"inconclusive [inhibitor, single point]",
CCc1ccc(NC(=O)CSc2ccc(-c3cccnc3)nn2)cc1,"inconclusive [inhibitor, single point]",
O=C(NCCC1=CCCCC1)C1CCN(Cc2cnn(-c3ccccc3)c2-n2cccc2)CC1,active: 23.1 µM,
Cc1cccc(NC(=O)COc2coc(CN3CCN(c4ccccc4)CC3)cc2=O)c1C,"inconclusive [inhibitor, single point]",
N#CC1=C(N)OC2=C(C(=O)CC(c3ccccc3)C2)C1c1cccnc1 (stereo not drawn),"inconclusive [inhibitor, single point]",
CC1(C)C2CCC1(C)C(OCCNCCOC(=O)Nc1ccccc1)C2 (stereo not drawn),"inconclusive [inhibitor, single point]",
Cc1cc(N)ncc1[N+](=O)[O-],,inactive: 0.439%
Nc1cc(=O)[nH]c(SCC(=O)N2CCC(Cc3ccccc3)CC2)n1,,inactive: -25.2%
CC(=O)N1CCN(C(C(=O)Nc2c(C)cccc2C)c2cccc(F)c2)CC1 (stereo not drawn),,inactive: 1.53%
N#Cc1c(Oc2ccc3ccccc3c2)sc(C(=O)c2ccccc2)c1N,"inconclusive [inhibitor, single point]",
Cc1ccccc1Cn1cc(S(=O)(=O)CC(=O)N2CCCCC2)c2ccccc21,"inconclusive [inhibitor, single point]",
Cc1cccc(C(=O)Nc2nc3nc(-c4ccccc4)cc(=O)n3[nH]2)c1,,inactive: -5.48%
CCn1c(CN2CCN(C(c3ccccc3)c3ccccc3)CC2)nc2c1c(=O)n(C)c(=O)n2C,"inconclusive [inhibitor, single point]",
Cc1nc(-c2ccccc2)[nH]c(=O)c1Oc1ccc(Cl)cc1Cl,,inactive: -1.53%
COc1cccc(C(=O)Nc2ncc3c(n2)CC(c2ccc(OC)cc2OC)CC3=O)c1 (stereo not drawn),active: 2.91 µM,
CN(C)C(CNC(=O)c1cc(Br)c(Br)s1)c1ccco1 (stereo not drawn),"inconclusive [inhibitor, single point]",
COC(=O)Nc1ccc(S(=O)(=O)N2CCC(Cc3ccccc3)CC2)cc1,"inconclusive [inhibitor, single point]",

SMILES,Potency,"activity change, negative = growth inhibition"
COc1ccc2[nH]c(O)c(N=O)c2c1,,inactive: -12.8%
CC1=C(C(=O)OCCc2ccccc2)C(c2ccsc2)NC(=O)N1C (stereo not drawn),"inconclusive [inhibitor, partial curve]",
CC(NC(=O)CSc1nnnn1C1CC1)c1ccccc1Br (stereo not drawn),,inactive: -9.36%
COc1cc(-c2nc(-c3ccc4c(c3)[nH]c(=O)n4C)no2)cc(OC)c1OC,,inactive: -15.7%
CC(NC(=O)CNC(=S)N(Cc1cccs1)C1CCCC1)c1ccccc1 (stereo not drawn),"inconclusive [inhibitor, single point]",
CC(=O)NN1C(=O)/C(=C\c2ccccc2)SC1=S,"inconclusive [inhibitor, single point]",
COc1cc(C)c(NC(=O)c2cccc(S(=O)(=O)N3CCCC3)c2)cc1OC,,inactive: -14.7%
COc1cc(C(=O)N2CCC2(C)C(=O)NC(C)C)cc(OC)c1OC (stereo not drawn),,inactive: 0.82%
COc1ccc(-n2ccnc2SCC(=O)NCc2ccc(F)cc2)c(OC)c1,"inconclusive [inhibitor, full curve, poor fit]",
Cc1ccc(S(=O)(=O)N2CCN(Cc3cc(Br)ccc3O)CC2)cc1,active: 18.4 µM,
CC(C)CCNC(=O)CN(C(=O)CCC(=O)Nc1nccs1)c1ccc2c(c1)OCCO2,"inconclusive [inhibitor, single point]",
Cc1ccn2c(=O)cc(COc3ccc(NC(=O)COc4ccccc4)cc3)nc2c1,,inactive: 7.59%
CC(C)(C)c1ccc(S(=O)(=O)N2CCN(CC(O)CN3CCOCC3)CC2)cc1 (stereo not drawn),,inactive: 0.51%
COCc1cn(CC[C@@H]2CC[C@@H](NC(=O)Nc3ccc4c(c3)OCO4)[C@@H](CO)O2)nn1,,inactive: 3.65%
Cc1cc(C)nc(/N=C(\N)N(Cc2ccccc2)Cc2ccccc2)n1,"inconclusive [inhibitor, single point]",
CC(C(=O)Nc1cccc(S(=O)(=O)N2CCOCC2)c1)N1CCN(C/C=C/c2ccccc2)CC1 (stereo not drawn),"inconclusive [inhibitor, single point]",
CN(C)c1ccc(NC(=O)c2ccc(COc3cccc(Cl)c3)o2)cc1,active: 20.6 µM,
COC(=O)c1nc(NC(=O)C(C)(C)C)n[nH]1,"inconclusive [inhibitor, partial curve, poor fit]",
O=C(/C=C/c1cccc([N+](=O)[O-])c1)c1ccc2c(c1)OCCO2,"inconclusive [inhibitor, single point]",
N#Cc1ccccc1NC(=O)C(=O)NCCc1csc(-c2ccc(C(F)(F)F)cc2)n1,"inconclusive [inhibitor, single point]",
CCCC1CCC(c2ccc(/C(N)=N/O)cc2)CC1 (stereo not drawn),"inconclusive [inhibitor, single point]",
NC(=O)c1ccsc1NC(=O)COC(=O)c1cc(Cl)ccc1O,,inconclusive: -30.1% [inhibitor]
O=C(Cc1ccccc1)Nc1ccc(NC(=O)c2cccnc2)cc1,,inactive: -28%
CCC(C)NC(=O)c1ccccc1NC(=O)c1ccc(CSc2ccccc2)cc1 (stereo not drawn),"inconclusive [inhibitor, single point]",

# From PubChem BioAssay AID686979 (National Center for Advancing Translational Sciences (NCATS), 2013)
